The list shows a part of the results. Most values come without repeats; read them as rough.
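Note: cell number obtained by counting DAPI-stained nuclei in high-throughput microscope images with image analysis software, screen run in 1,536-well plates.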

The subject of this test is WM451Lu. Description: cell count relative to DMSO control; melanoma cells; higher = more viable cells. The settings on record: library dose: low library concentration; 72 h.
As for `O=C(Nc1cc(C(F)(F)F)cc(C(F)(F)F)c1)c1cc(Cl)ccc1O` + C#Cc1cccc(Nc2ncnc3cc(OCCOC)c(OCCOC)cc23)c1 [erlotinib] (first compound 0.016 µM, partner dose 0.8 µM), the cell count amounted to 113%.

In the case of `O=C(O)[C@@H]1[O][Sb](=[O])([O][Sb]2(=[O])[O][C@H]([C@H](O)CO)[C@H](O)[C@H](C(=O)O)[O]2)[O][C@H]([C@H](O)CO)[C@@H]1O` (stereo not given in full) [stibogluconate] + Nc1nc(F)nc2c1ncn2[C@@H]1O[C@H](CO)[C@@H](O)[C@@H]1O [fludarabine] (first compound 2 µM, partner dose 0.2 µM), the cell count amounted to 42.6%.

Take `O=C(O)[C@@H]1[O][Sb](=[O])([O][Sb]2(=[O])[O][C@H]([C@H](O)CO)[C@H](O)[C@H](C(=O)O)[O]2)[O][C@H]([C@H](O)CO)[C@@H]1O` (stereo not given in full) [stibogluconate] + Cn1nnc2c(C(N)=O)ncn2c1=O [temozolomide] (first compound 2 µM, partner dose 2 µM): the cell count is 103%.

The compound `O=C(O)[C@@H]1[O][Sb](=[O])([O][Sb]2(=[O])[O][C@H]([C@H](O)CO)[C@H](O)[C@H](C(=O)O)[O]2)[O][C@H]([C@H](O)CO)[C@@H]1O` (stereo not given in full) [stibogluconate] + CC(C)(C)c1cnc(CSc2cnc(NC(=O)C3CCNCC3)s2)o1 [SNS-032] (first compound 2 µM, partner dose 0.01 µM) came in with a cell count of 92.2%.

With `O=C(O)c1ccc2c(c1)nc(Nc1cccc(Cl)c1)c1ccncc12` + CO[C@@H]1[C@H](N(C)C(=O)c2ccccc2)C[C@H]2O[C@]1(C)n1c3ccccc3c3c4c(c5c6ccccc6n2c5c31)C(=O)NC4 [Midostaurin] (first compound 0.4 µM, partner dose 0.08 µM), the cell count turned out to be 98%.

Compound `O=C(O)[C@@H]1[O][Sb](=[O])([O][Sb]2(=[O])[O][C@H]([C@H](O)CO)[C@H](O)[C@H](C(=O)O)[O]2)[O][C@H]([C@H](O)CO)[C@@H]1O` (stereo not given in full) [stibogluconate] + COCC[n+]1c2c(n(Cc3cnccn3)c1C)C(=O)c1ccccc1C2=O [YM155] (first compound 2 µM, partner dose 0.0004 µM) returned a cell count of 86.5%.

`O=C(Nc1cc(C(F)(F)F)cc(C(F)(F)F)c1)c1cc(Cl)ccc1O` + NC1(c2ccc(-c3nc4ccn5c(=O)[nH]nc5c4cc3-c3ccccc3)cc2)CCC1 [MK2206] (first compound 0.016 µM, partner dose 0.4 µM) displayed a cell count of 125%.

Take `O=C(Nc1cc(C(F)(F)F)cc(C(F)(F)F)c1)c1cc(Cl)ccc1O` + O=c1[nH]nc(Sc2ncc([N+](=O)[O-])s2)n1-c1ccc2c(c1)OCCO2 [BI78D3] (first compound 0.016 µM, partner dose 0.2 µM): the cell count turned out to be 107%.

Turning to `O=C(O)[C@@H]1[O][Sb](=[O])([O][Sb]2(=[O])[O][C@H]([C@H](O)CO)[C@H](O)[C@H](C(=O)O)[O]2)[O][C@H]([C@H](O)CO)[C@@H]1O` (stereo not given in full) [stibogluconate] + Nc1cccc2c1CN(C1CCC(=O)NC1=O)C2=O [lenalidomide] (first compound 2 µM, partner dose 1 µM), the cell count amounted to 126%.

`Cn1nnc2c(C(N)=O)ncn2c1=O` [temozolomide] + CN(NC(=O)CC(=O)NN(C)C(=S)c1ccccc1)C(=S)c1ccccc1 [STA4783] (first compound 2 µM, partner dose 0.006 µM) returned a cell count of 127%.

The values above are taken from the supplement of paper PMC4604168 (melanoma cell lines).
